Test results reported in the BET-seq Pho4 binding data (Le et al. 2018).
This is one part of the list. These are noisy estimates, calculated here from bound and input reads.

Each sequence was assayed against T1, Pho4 (S. cerevisiae) (UniProt P07270) (assay: relative binding free energy (BET-seq); higher = weaker binding). Settings: reference: library average.
T1 sequence: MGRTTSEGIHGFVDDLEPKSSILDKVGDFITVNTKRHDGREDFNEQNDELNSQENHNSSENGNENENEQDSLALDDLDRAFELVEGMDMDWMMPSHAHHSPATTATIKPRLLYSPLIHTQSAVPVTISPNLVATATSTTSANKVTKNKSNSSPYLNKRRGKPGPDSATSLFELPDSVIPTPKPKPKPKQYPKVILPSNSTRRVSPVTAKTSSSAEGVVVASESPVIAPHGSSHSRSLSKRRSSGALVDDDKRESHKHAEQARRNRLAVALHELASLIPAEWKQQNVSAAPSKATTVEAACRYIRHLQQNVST
ATGATCACGTGAGGGT was tested, and the “relative binding free energy” value was 0.39 kcal/mol.
For AATCTCACGTGTGAGG, the “relative binding free energy” value was 0.32 kcal/mol.
TTATGCACGTGAATGT was tested, and the “relative binding free energy” value was 0.13 kcal/mol.
For TTGAGCACGTGTTTCA, the “relative binding free energy” value was -0.07 kcal/mol.
In the case of CATAACACGTGGGTGG, the “relative binding free energy” value is reported as -0.16 kcal/mol.
For TTATACACGTGCGGGG, the “relative binding free energy” value was 0.05 kcal/mol.
With GTTGGCACGTGCGGTC the “relative binding free energy” value was -0.2 kcal/mol.
GGCGACACGTGTGCGT was tested, and the “relative binding free energy” value was 0.18 kcal/mol.
With TAGCGCACGTGGTGCG the “relative binding free energy” value was -0.08 kcal/mol.
For GGGTACACGTGTTTGT, the “relative binding free energy” value was 0.16 kcal/mol.
With TGAGACACGTGGGGCG the “relative binding free energy” value was -0.14 kcal/mol.
In the case of GTTTACACGTGAGATT, the “relative binding free energy” value is reported as 0.27 kcal/mol.
With TAAGGCACGTGGTCAG the “relative binding free energy” value was -0.12 kcal/mol.
TTAACCACGTGAGTTG was tested, and the “relative binding free energy” value was 0.21 kcal/mol.
With ATTATCACGTGATTAG the “relative binding free energy” value was 0.15 kcal/mol.
In the case of CTGATCACGTGTTATT, the “relative binding free energy” value is reported as 0.1 kcal/mol.
TTTAACACGTGATGTC was tested, and the “relative binding free energy” value was 0.27 kcal/mol.
For TAGAGCACGTGGCTGT, the “relative binding free energy” value was -0.29 kcal/mol.
With TGTAACACGTGGTGAA the “relative binding free energy” value was -0.12 kcal/mol.
With TGAGTCACGTGGAAAG the “relative binding free energy” value was 0.13 kcal/mol.
For GCTTGCACGTGATCGG, the “relative binding free energy” value was 0.08 kcal/mol.
AATAGCACGTGGGGTT was tested, and the “relative binding free energy” value was -0.13 kcal/mol.
ATGCTCACGTGTGGCT was tested, and the “relative binding free energy” value was 0.22 kcal/mol.
TTAACCACGTGGTTAT was tested, and the “relative binding free energy” value was -0.03 kcal/mol.
In the case of GGTGACACGTGGATGT, the “relative binding free energy” value is reported as 0.08 kcal/mol.
In the case of CGGGCCACGTGGTGGT, the “relative binding free energy” value is reported as -0.15 kcal/mol.
In the case of GGGTTCACGTGTTGGA, the “relative binding free energy” value is reported as 0.34 kcal/mol.
GTCTTCACGTGTAAGT was tested, and the “relative binding free energy” value was 0.32 kcal/mol.
For GGACTCACGTGTGGTA, the “relative binding free energy” value was 0.25 kcal/mol.
GATGGCACGTGTTGGC was tested, and the “relative binding free energy” value was 0 kcal/mol.
In the case of ATGTGCACGTGTATAA, the “relative binding free energy” value is reported as -0.04 kcal/mol.
AGTACCACGTGGGGGG was tested, and the “relative binding free energy” value was -0.28 kcal/mol.
With TGGGACACGTGGGCCT the “relative binding free energy” value was -0.16 kcal/mol.
In the case of GGCGACACGTGGTGAT, the “relative binding free energy” value is reported as 0.11 kcal/mol.
With TTTATCACGTGCAGGA the “relative binding free energy” value was 0.06 kcal/mol.
In the case of CCCTGCACGTGGGGGG, the “relative binding free energy” value is reported as -0.32 kcal/mol.
GTTAACACGTGTGAAG was tested, and the “relative binding free energy” value was 0.05 kcal/mol.
In the case of TCGATCACGTGGATGG, the “relative binding free energy” value is reported as 0.05 kcal/mol.
In the case of TGGAGCACGTGAAGAT, the “relative binding free energy” value is reported as 0.28 kcal/mol.
With GGAAGCACGTGGTGTT the “relative binding free energy” value was -0.13 kcal/mol.
For GCGGGCACGTGGGGGA, the “relative binding free energy” value was -0.16 kcal/mol.
With TCAGTCACGTGACGTG the “relative binding free energy” value was 0.21 kcal/mol.
With AGGCTCACGTGTAATG the “relative binding free energy” value was 0.25 kcal/mol.
For TGGTGCACGTGGTTAC, the “relative binding free energy” value was -0.15 kcal/mol.
TGGGGCACGTGCAGTT was tested, and the “relative binding free energy” value was -0.12 kcal/mol.
In the case of CGGCGCACGTGGGGTA, the “relative binding free energy” value is reported as -0.28 kcal/mol.
In the case of CCTTGCACGTGGGTGG, the “relative binding free energy” value is reported as -0.25 kcal/mol.
With TCGTACACGTGGTGGG the “relative binding free energy” value was 0.06 kcal/mol.
For GGCGTCACGTGTAGTA, the “relative binding free energy” value was 0.13 kcal/mol.
In the case of TTCTTCACGTGGTGCT, the “relative binding free energy” value is reported as 0.16 kcal/mol.
CGTGTCACGTGGTATA was tested, and the “relative binding free energy” value was 0.11 kcal/mol.
With ATCTGCACGTGGGGTG the “relative binding free energy” value was -0.14 kcal/mol.
GGCAGCACGTGGATGT was tested, and the “relative binding free energy” value was 0.01 kcal/mol.
In the case of GGTCGCACGTGTCCGG, the “relative binding free energy” value is reported as 0.1 kcal/mol.
For TTTTTCACGTGTCGGT, the “relative binding free energy” value was 0.4 kcal/mol.
CGTGTCACGTGAAGTT was tested, and the “relative binding free energy” value was 0.13 kcal/mol.
For AGGATCACGTGAGTGT, the “relative binding free energy” value was 0.51 kcal/mol.
For GCGTTCACGTGGGGAA, the “relative binding free energy” value was 0.05 kcal/mol.
In the case of GGAGGCACGTGGGGTA, the “relative binding free energy” value is reported as -0.2 kcal/mol.
With TATATCACGTGGCGGG the “relative binding free energy” value was 0 kcal/mol.
For GAATCCACGTGGGTGG, the “relative binding free energy” value was -0.11 kcal/mol.
In the case of TAGGGCACGTGCGAAG, the “relative binding free energy” value is reported as -0.09 kcal/mol.
AAGTACACGTGCTGTG was tested, and the “relative binding free energy” value was -0.04 kcal/mol.
In the case of AATACCACGTGTTGGG, the “relative binding free energy” value is reported as 0.09 kcal/mol.
For TGTAGCACGTGTCGAT, the “relative binding free energy” value was -0.17 kcal/mol.
In the case of GGCTGCACGTGGCTGT, the “relative binding free energy” value is reported as -0.1 kcal/mol.
For AGTTACACGTGCTGTT, the “relative binding free energy” value was 0.11 kcal/mol.
For TTGTGCACGTGCGCTG, the “relative binding free energy” value was -0.21 kcal/mol.
In the case of GGTTACACGTGCGGGA, the “relative binding free energy” value is reported as 0.18 kcal/mol.
For GTTATCACGTGTCAAT, the “relative binding free energy” value was 0.18 kcal/mol.
AGTGTCACGTGATAGA was tested, and the “relative binding free energy” value was 0.18 kcal/mol.
TGGCGCACGTGTAGTG was tested, and the “relative binding free energy” value was 0 kcal/mol.
TGTTGCACGTGTTGCG was tested, and the “relative binding free energy” value was -0.02 kcal/mol.
TCGTTCACGTGTATTG was tested, and the “relative binding free energy” value was 0.11 kcal/mol.
AGTGTCACGTGGTGTC was tested, and the “relative binding free energy” value was -0.02 kcal/mol.
GGGCGCACGTGTGAGG was tested, and the “relative binding free energy” value was -0.02 kcal/mol.
For GGTCGCACGTGGCTGT, the “relative binding free energy” value was -0.14 kcal/mol.
With GAGTGCACGTGGGAGT the “relative binding free energy” value was -0.01 kcal/mol.
With TTTATCACGTGCCTTG the “relative binding free energy” value was 0.12 kcal/mol.
ATTGTCACGTGGGAAG was tested, and the “relative binding free energy” value was -0.05 kcal/mol.
GAGGGCACGTGGCAGG was tested, and the “relative binding free energy” value was -0.14 kcal/mol.
GGAGGCACGTGTGGCA was tested, and the “relative binding free energy” value was -0.06 kcal/mol.
For ACGGTCACGTGTGGGT, the “relative binding free energy” value was 0.15 kcal/mol.
With GTCTACACGTGGGAGG the “relative binding free energy” value was -0.01 kcal/mol.
In the case of GGCCTCACGTGAGTGT, the “relative binding free energy” value is reported as 0.31 kcal/mol.
TATATCACGTGTGAGG was tested, and the “relative binding free energy” value was 0.24 kcal/mol.
For TGTTGCACGTGGCGCG, the “relative binding free energy” value was -0.13 kcal/mol.
For TTGTGCACGTGTGACA, the “relative binding free energy” value was 0.03 kcal/mol.
GGATCCACGTGGTGCG was tested, and the “relative binding free energy” value was 0.1 kcal/mol.
For CTGGGCACGTGGGTTG, the “relative binding free energy” value was -0.22 kcal/mol.
TCCGTCACGTGGTGTT was tested, and the “relative binding free energy” value was 0.08 kcal/mol.
In the case of ATTGTCACGTGGTGAG, the “relative binding free energy” value is reported as 0.07 kcal/mol.
With GGCGGCACGTGGGCTC the “relative binding free energy” value was -0.08 kcal/mol.
For TTTAGCACGTGTTAAA, the “relative binding free energy” value was -0.11 kcal/mol.
In the case of GGGGCCACGTGTGTCT, the “relative binding free energy” value is reported as -0.05 kcal/mol.
With GTTGTCACGTGTTGTT the “relative binding free energy” value was 0.22 kcal/mol.
TTTGTCACGTGATTGG was tested, and the “relative binding free energy” value was 0.17 kcal/mol.
In the case of CTGGGCACGTGGAAAT, the “relative binding free energy” value is reported as 0.1 kcal/mol.
AATGTCACGTGATGGA was tested, and the “relative binding free energy” value was 0.29 kcal/mol.
For CGTTGCACGTGTCAGG, the “relative binding free energy” value was -0.06 kcal/mol.
GTTAACACGTGAGGGA was tested, and the “relative binding free energy” value was 0.17 kcal/mol.
CAAGGCACGTGGGCGT was tested, and the “relative binding free energy” value was -0.28 kcal/mol.
GATTACACGTGAGAGG was tested, and the “relative binding free energy” value was 0.31 kcal/mol.
For CTTGACACGTGTTATT, the “relative binding free energy” value was 0.08 kcal/mol.
GGTCACACGTGGGGTG was tested, and the “relative binding free energy” value was -0.06 kcal/mol.
In the case of TGTTGCACGTGTGTGC, the “relative binding free energy” value is reported as 0.1 kcal/mol.
In the case of ATTAACACGTGATATA, the “relative binding free energy” value is reported as 0.14 kcal/mol.
ATTGTCACGTGTACGA was tested, and the “relative binding free energy” value was 0.05 kcal/mol.
With TTATGCACGTGGGAAA the “relative binding free energy” value was 0.13 kcal/mol.
In the case of TGGGACACGTGGAAAT, the “relative binding free energy” value is reported as 0.26 kcal/mol.
With GAGGGCACGTGGGCGC the “relative binding free energy” value was -0.28 kcal/mol.
For GTCGACACGTGAGGGT, the “relative binding free energy” value was 0.24 kcal/mol.
In the case of GAGTACACGTGGGCTT, the “relative binding free energy” value is reported as -0.06 kcal/mol.
For AAGTCCACGTGATTTG, the “relative binding free energy” value was 0.29 kcal/mol.
With GATTCCACGTGGTGTG the “relative binding free energy” value was -0.02 kcal/mol.
